Measured values as given in PubChem BioAssay AID445 (National Center for Advancing Translational Sciences (NCATS), 2006).
Hit rate of the full screen: of about 110,000 compounds, about 40 (0.04%) were called active. This list was built around the results that the source calls inconclusive (neither active nor inactive); the mix of calls is not that of the screen. Calls follow the shape of the dose curve; as a rule, active = well fitted curve in the direction sought with a large enough effect in the signal ratio (not every such curve was filed as active); inconclusive = small, poorly fitted or top-dose-only effect, or a change in a side signal; inactive = flat fitted curve, though single readings scatter; the % refers to the signal ratio. Potencies of inconclusive entries are doubtful fits and often do not repeat.

Assay: IkB Signaling;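 as to IkBa stabilization activation: 0% = basal untreated cells and 100% = reference inhibitor full response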
Conditions: ABC-DLBCL IkBa-CBG/CBR dual luciferase ratio (green luciferase fused to IkBa over red control in OCI-Ly3 lymphoma cells), 4 h; IkBa stabilization activation: at 57.1 µM (top of the series), scaled: untreated 0%, proteasome inhibitor 100% unless noted
Procedure, shortened: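 In this assay, an IκBα–CBG68 fusion accumulates when IKK-driven degradation is blocked; native CBR normalizes for cell number. OCI-Ly3 cells were treated 4 h with compound and doxycycline, then green and red light read after Chroma-Glo addition.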
Potency is read from the fitted curve at half-maximal effect.

Row | Structure (SMILES) | IkBa stabilization activation | Potency
1 | COc1ccccc1-c1ccc2ncnc(Nc3ccccc3)c2c1 | inactive: 2.62% [at 11.4 µM, scaled: untreated 0%, proteasome inhibitor 100%] | –
2 | CN(C)c1ccc(-c2cncnc2N(C)Cc2ccco2)cc1 | inactive: -0.721% [at 11.4 µM, scaled: untreated 0%, proteasome inhibitor 100%] | –
3 | CCOC(=O)c1cc(-c2ccc(F)cc2)n(CCC(=O)NC2CCC(C)CC2)c1C (stereo not given) | inconclusive: -1.7% [signal inhibitor] | –
4 | CSc1nc(NC2CCCC2)c([N+](=O)[O-])c(NC2CCCC2)n1 | inactive | –
5 | Cc1ccc(OCCn2c(C3CC(=O)N(Cc4ccc(F)cc4)C3)nc3ccccc32)c(C)c1 (stereo not given) | inconclusive: -0.648% [signal inhibitor] | –
6 | O[C@@H](c1cc([C@@]23C[C@H]4CC[C@@H]2C[C@H](C4)C3)nc2c(Cl)cc(Cl)cc12)[C@@H]1CCCCN1 | inactive: 0.5% [at 11.4 µM, scaled: untreated 0%, proteasome inhibitor 100%] | –
7 | O=S(=O)(NCC(c1ccccc1)N1CCc2ccccc21)c1ccc(Cl)cc1 (stereo not given) | inactive | –
8 | COc1cc(C)c(C(C)C)cc1S(=O)(=O)n1cnc(C)c1 | inconclusive: 7.5% [signal activator] | –
9 | Cc1cccc(N2CCN(c3nc4ccccc4c4nnc(C)n34)CC2)c1C | inconclusive: 3.38% [signal inhibitor] | –
10 | COc1ccc(CNC(=O)Cn2cccc2C(=O)c2ccccc2C)cc1 | inconclusive: 4.51% [signal inhibitor] | –
11 | Cc1cccc(NC(=O)c2c(NC(=O)c3ccccc3)sc3c2CCC3)c1 | – | inconclusive: 20 µM [signal inhibitor, partial curve]
12 | Cc1cc(C)cc(-n2ccnc2SCC(=O)Nc2ccccc2F)c1 | inactive | –
13 | CCOC(=O)c1ccc(NC(=O)CC(C)n2nc(C)cc2C)cc1 (stereo not given) | inactive | –
14 | COc1cc(NC(=O)Cc2noc3ccccc23)cc(OC)c1OC | inconclusive: 6.16% [signal inhibitor] | –
15 | Cc1cccc(-n2ncc3c(NNC(=O)c4ccccc4Cl)ncnc32)c1 | inconclusive: -0.47% [signal inhibitor] | –
16 | O=c1[nH]c(C2CCCN(S(=O)(=O)c3ccccc3)C2)nc2c1nnn2Cc1ccccc1Br (stereo not given) | inconclusive: 4.67% [signal inhibitor] | –
17 | Cc1ccc(C)c(Nc2nn3c(=O)c4ccc(C(=O)NCc5ccccc5)cc4nc3s2)c1 | inconclusive: -3.79% [signal inhibitor] | –
18 | COc1ccc(CNC(=O)c2cc(-c3ccc(Br)s3)nc3ccccc23)cc1 | inactive | –

Row | Structure (SMILES) | IkBa stabilization activation | Potency
19 | COc1cccc(C(=O)Nc2nnc(S(=O)(=O)N3CCCc4ccccc43)s2)c1 | inconclusive: -0.855% [signal inhibitor] | –
20 | Cc1noc(C)c1C(=O)Nc1nc(C23CC4CC(CC(C4)C2)C3)cs1 | inconclusive: 2.25% [signal inhibitor] | –
21 | Cc1nnc(C)c2c(C)n(-c3ccc(Br)cc3)c(C)c12 | inactive | –
22 | Cc1ccc(C)c(CN2C(=O)c3ccccc3S(=O)c3ccc(C(=O)N4CCCCC4)cc32)c1 (stereo not given) | inconclusive: 1.09% [signal inhibitor] | –
23 | N#CC1=C(N)C2=C(N3CCCCC3)CCCC2C1(C#N)C#N (stereo not given) | inactive | –
24 | O=C(Nc1ccc(F)cc1F)C1CCN(C(=O)c2cnn(-c3ccccc3)c2-n2cccc2)CC1 | inconclusive: 1.42% [signal inhibitor] | –
25 | CCN1/C(=C\C(C)=O)Sc2ccc(OC)cc21 | – | inconclusive: 25.1 µM [signal inhibitor, single point]
26 | COCCCn1c2nc3ccccc3nc2c2c(=O)n(-c3ccccc3OC)cnc21 | inactive | –
27 | Oc1ccc(C(c2nnnn2C2CCCC2)N2CCc3ccccc3C2)cc1 (stereo not given) | inconclusive: 2.5% [signal inhibitor] | –
28 | Cn1cccc1-c1cc2n(n1)CCC(=O)N2CCCC(=O)NCc1cccc(Cl)c1 | inconclusive: 3.54% [signal inhibitor] | –
29 | COc1ccc2c(c1)c(CC(=O)Nc1c(C)cccc1C)c(C)n2C(=O)c1ccc(Cl)cc1 | inconclusive: 5.77% [signal inhibitor] | –
30 | CCn1c(SCC(=O)Nc2ccccc2N2CCCCC2)nc2c1c(=O)n(C)c(=O)n2C | inconclusive: 1.53% [signal inhibitor] | –
31 | CC(C)c1ccc(C2NC(=O)c3c(sc4c3CCN(C)C4)N2)cc1 (stereo not given) | inactive | –
32 | CCOc1ccccc1NC(=O)Cn1c(=O)n(-c2ccc(C)cc2)c(=O)c2c1cnn2C | inconclusive: -2.83% [signal inhibitor] | –
33 | CCOc1ccc(OCc2ccc(C(=O)N3CCCC3)o2)cc1 | inconclusive: -0.481% [signal inhibitor] | –
34 | COc1ccc(NC(=O)c2ccc(NC(=O)CCS(=O)(=O)c3cccs3)cc2)cc1Cl | inconclusive: 6.27% [signal inhibitor] | –
35 | Cc1nc2cnc(Oc3ccccc3)nc2n(Cc2cccs2)c1=O | inactive: 1.03% [at 11.4 µM, scaled: untreated 0%, proteasome inhibitor 100%] | –
